Laboratory results published in PubChem BioAssay AID493208 (National Center for Advancing Translational Sciences (NCATS), 2011).
About 340 (0.77%) of roughly 44,000 compounds were called active. About 5% were inconclusive and are not listed. Calls come from the whole dose curve; as a rule, active = well fitted inhibition curve with a large enough effect; inconclusive = small, poorly fitted or top-dose-only effect; inactive = flat fitted curve, though single readings scatter. The list shows a part of the results.

Test: Acumen qHTS Assay for Inhibitors of the mTORC1 Signaling Pathway in MEF (Tsc2-/-, p53-/-) Cells: Sytravon;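 note: plate controls were DMSO for no effect and rapamycin for full effect; nearly all actives have a fitted effect of over 50% in size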
Settings: phospho-rpS6 immunofluorescence/PI, 24 h; series mostly up to 38.3 µM; activity change, negative = inhibition: at the top concentration
Procedure, shortened: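 Plate MEFs (Tsc2-/-, p53-/-, empty vector) in DMEM/10% FBS; after 24 h add compound, incubate 24 h at 37 degree Celsius; fix in PFA/TX-100, block, stain phospho-rpS6 and 10 uM PI; scan at 488 nm; report % positive cells.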

Activity change, negative = inhibition, inactive:
Cc1c(Cl)cccc1NC(=O)CN1C(=O)COc2ccc(S(=O)(=O)N3CCOCC3)cc21 1.01%
CC1=C(C(=O)OCC2CCCCC2)C(c2cccc(Cl)c2Cl)CC(=O)N1 (configuration not stated) -12.2%
CCc1ccc(Cn2c(CNS(=O)(=O)c3ccc(F)c(Cl)c3)nc3cccnc32)cc1 0.326%
CCOc1ccc(C(=O)c2oc3ccccc3c2NC(=O)Cc2coc3cc(C)cc(C)c23)cc1 -0.255%
CC(=O)N1CCCC1c1nc2ccccc2n1Cc1ccccc1 (configuration not stated) -0.0989%
COc1ccccc1N1CCN(S(=O)(=O)CCNC(=O)COc2ccccc2F)CC1 -9.89%
Cc1ccc(CNc2ncccc2-c2nc(-c3ccc(Cl)cc3)no2)cc1 0.149%
O=C(CCCn1c(=O)c2sccc2n(Cc2ccc(Cl)cc2)c1=O)NCc1ccc2c(c1)OCO2 -14.7%
COc1ccc(Br)cc1CNC(=O)CCc1cn(Cc2ccc(C)cc2)c2ccccc12 -17.8%
CCOC(=O)c1ccccc1NC(=O)c1cc2c(s1)-c1ccccc1SC2 0.624%
CC1=C(c2ccc(Cl)cc2)S(=O)(=O)N=C1N1CCC(C(=O)NCCc2ccco2)CC1 -1.4%
COC(=O)c1sccc1S(=O)(=O)N1CCN(c2ccc(Cl)cc2)CC1 -8.83%
Cc1scc(CN2CCN(c3ccc(F)cc3)CC2)c1C -11.6%
CC(C)c1ccc(NC(=O)CN2C(=O)CSc3ccc(S(=O)(=O)N4CCCC4)cc32)cc1 0.126%
Cc1ccc(-c2nc(S(=O)(=O)c3ccccc3)c(SCC(=O)NC3CCCCC3)o2)cc1 8.02%
CC(C)CC(NC(=O)C1CCCCC1)C(=O)Nc1cccc(C(F)(F)F)c1 (configuration not stated) -1.46%
Cc1ccc(Cl)cc1N1CCN(C(=O)c2nn(C)c3c2CS(=O)(=O)c2ccccc2-3)CC1 6.74%
Cc1ccc(Cl)cc1NC(=O)c1cc(CN2CCCC2)on1 -0.18%
Cc1cccc(N2CCN(C(=O)c3cccn3-c3nnc(N4CCCCC4)s3)CC2)c1C -8.31%
CCc1ccc(NC(=O)c2ccc(NS(=O)(=O)c3c(C)noc3C)cc2)cc1 -3.46%
CCc1cccc(C)c1NC(=O)c1cc(S(=O)(=O)N2CCCCCC2)cn1C 0.323%
COc1ccc(-c2cc(C(F)(F)F)nc(SCCC(=O)Nc3cccc(OC)c3)n2)cc1 -10.3%
O=C(NC1CC1)c1ccc(Cn2c(SCc3ccc(F)cc3)nc3cccnc32)cc1 0%
O=C(COc1ccc(F)cc1)Nc1ccc(S(=O)(=O)N(Cc2ccccc2)c2ccccc2)cc1 -3.83%
CCc1ccc(CNC(=O)c2sc3nc[nH]c(=O)c3c2C)cc1 -0.181%
CCCNc1ncnc2c1c(-c1ccccc1)cn2-c1ccc(OCC)cc1 1.97%
COc1ccc(NC(=O)CCn2c(-c3ccc(F)cc3)cc(C(C)=O)c2C)c(OC)c1 -4.34%
O=c1cc(CSc2ccccc2)[nH]c2ccc(F)cc12 -12.2%
COc1ccc(-c2cc(C(C)=O)c(C)n2CCC(=O)Nc2ccc(C)c(Cl)c2)cc1 0.654%
CCCOc1ccc(C(=O)Nc2ccc(-c3cc4ccccc4oc3=O)c(C)c2)cc1 -5.03%
CCc1ccc(Nc2nnc(-c3cc4cc(OC)ccc4oc3=O)s2)cc1 -0.264%
COc1ccc(OC)c(CNc2ncnc3c2nc2n3CCCC2)c1 2.04%
CCN(C(=O)Cc1c(C(=O)O)c(C)cn1C)c1cccc(Cl)c1 -0.659%
CCc1c(C)nc(SCc2nc(-c3ccccc3C)no2)[nH]c1=O -8.32%
CCOc1ccc(S(=O)(=O)c2c(C(=O)c3ccc(C)c(C)c3)cnc3ccccc23)cc1 0.795%
Cc1ccc(CNC(=O)CCc2nnc3n(C)c(=O)c4sccc4n23)cc1 -0.0529%
COc1cc(NC(=O)C(NS(=O)(=O)c2ccc3c(c2)CCCC(=O)N3)C(C)C)cc(OC)c1 (configuration not stated) 1.96%
CC(=O)Nc1ccc(Nc2c(CCC(C)C)c(C)c(C#N)c3nc4ccccc4n23)cc1 -15.4%
Cc1ccccc1C(=O)Nc1nnc(S(=O)(=O)N(C)c2ccc(Cl)cc2)s1 -16.1%
COC(=O)c1sccc1S(=O)(=O)N(CC(=O)Nc1ccc(C)c(F)c1)c1ccc(C)c(C)c1 -7.17%
Cc1ccccc1Cn1c(=O)n(CCc2ccccc2)c(=O)c2sc3ccccc3c21 -9.06%
CCc1ccc(C(=O)NC2=NC(c3cc(OC)ccc3OC)CC(=O)N2)cc1 (configuration not stated) 1.46%
COC(=O)c1ccc(-c2nc(-c3ccc(OC)c(OC)c3)no2)cc1 -9.15%
CC(=O)Nc1ccc(NC(=O)C(c2ccccc2)N2Cc3ccccc3C2=O)cc1 (configuration not stated) -7.82%
Cc1ccc(-c2nn(C)c(=O)c3ccccc23)cc1S(=O)(=O)NCCCN(C)C -2.76%
O=C(Nc1ccc(-c2nc3cc(NC(=O)c4ccc(Cl)cc4)ccc3o2)cc1)c1ccc(Cl)cc1 0.214%
COc1ccc(-c2cc(C(F)(F)F)n3nc(C(=O)Nc4sc5c(c4C(=O)OC(C)C)CCC(C)C5)cc3n2)cc1 (configuration not stated) -5.11%
CCCN(CCC)C(=O)C1CCCN(S(=O)(=O)c2cc(Br)cc3c2N(C(=O)CC)CC3)C1 (configuration not stated) -15.7%
CCc1ccc(-n2nc(CO)c(C(=O)NCc3cccnc3)n2)cc1 -6.93%
Cc1cc(C)cc(NC(=O)CCc2c(C)nc3c(c2C)c(=O)n(C)c(=O)n3C)c1 -18.4%
O=C(c1ccc2c(c1)N(Cc1ccc(Cl)cc1)C(=O)c1ccccc1S2(=O)=O)N1CCN(Cc2ccccc2)CC1 -0.62%
O=S(=O)(c1ccc(Br)cc1)c1nnn2c1nc(NCCc1ccccc1)c1sccc12 -5.42%
Cc1ccc(CCNC(=O)CCn2nc(-c3ccc(Cl)cc3)ccc2=O)cc1 15.6%
COc1ccc(N2C(=O)CCSC23C(=O)N(Cc2ccc(F)cc2)c2ccccc23)cc1 (configuration not stated) -8.17%
Cc1ccc(-c2onc(C)c2C)cc1S(=O)(=O)Nc1cccc(Cl)c1C 9.43%
Cc1nc2ccc(S(=O)(=O)NC(C(=O)N3CCN(c4cccc(Cl)c4)CC3)C(C)C)cc2s1 (configuration not stated) 2.64%
Cc1nc(N2CCCC2)ncc1C(=O)NCc1ccc(F)cc1 0%
Cc1cn2c(=O)c(S(=O)(=O)Nc3ccc(N4CCOCC4)cc3)c(C)nc2s1 -4.18%
COCCNC(=O)c1cnn(-c2cccc(C)c2)c1-n1cccc1 -11.1%
CC1CCN(S(=O)(=O)c2cc(C(=O)NCc3ccccc3)n(C)c2)CC1 -1.37%
COc1cc2ncc3c(-c4ccccc4)nn(CC(=O)NC4CCCCC4)c3c2cc1OC -3.32%
COc1ccc(C2=C(C)C(N3CCN(c4ccc(OC)cc4)CC3)=NS2(=O)=O)cc1 -8.7%
CN(C(=O)c1ccc2c(c1)N(Cc1ccc(F)cc1)C(=O)c1ccccc1S2(=O)=O)C1CCCCC1 -2.57%
COc1ccc(C(=O)NNc2ncnc3c2cnn3-c2ccc(C)cc2C)cc1 -3.5%
CCC(CC)C(=O)Nc1nnc(S(=O)(=O)N2c3ccccc3CC2C)s1 (configuration not stated) 1.64%
Fc1cccc(-c2nnn3c2nc(NCc2ccc4c(c2)OCO4)c2ccccc23)c1 -9.85%
Cc1cc(N2CCC(C(=O)Nc3ccccc3Cl)CC2)n2nc(C)c(-c3ccc(Cl)cc3)c2n1 -0.431%
CCOC(=O)Cn1c(=O)oc2cc(S(=O)(=O)NC(C)c3ccccc3)ccc21 (configuration not stated) -6.58%
CCc1ccc(CN(C(=O)Nc2cccc(Cl)c2)c2ccccn2)cc1 -2.71%
COC(=O)c1nc2n(n1)C(c1cc(OC)ccc1OC)C=C(c1ccc(Br)cc1)N2 (configuration not stated) -17.1%
O=C(c1ccccc1F)N1c2nc(-c3ccco3)nn2C2(CCCCC2)[C@@H]2CCCC[C@@H]21 -12.3%
COc1ccccc1CNC(=O)c1ccc(-n2c(C)cc3c2CCCC3)cc1 -7.31%
COc1ccc(Cl)cc1NC(=O)c1cnc(N2CCCCC2)c2ccccc12 -9.48%
Cc1c(Cl)cccc1NS(=O)(=O)c1ccc(NS(=O)(=O)c2ccc3c(c2)OCCO3)cc1 4.75%
CCOC(=O)c1ccccc1NC(=O)N1CC(C)Oc2ccc(C)cc21 (configuration not stated) 10.4%
CCOc1ccc(NC(=O)CCn2cccn2)cc1 3.95%
CCCCOC(=O)/C(C#N)=C\c1ccc(-c2ccc(Cl)cc2)o1 -2.78%
CC(=O)c1ccc(C(=O)N(Cc2cccnc2)c2nc3c(C)c(C)ccc3s2)cc1 -1.72%
CCOC(=O)N1CCN(C(=O)c2ccc3c(c2)N(Cc2cccc(Cl)c2)C(=O)c2ccccc2S3=O)CC1 (configuration not stated) -0.215%
O=C1CN(C(=O)COc2ccc(Cl)cc2)C(c2ccc(F)cc2)c2cc(Cl)ccc2N1 (configuration not stated) 0.533%
Cc1ccc(-c2nc3ccccn3c2Nc2ccc3c(c2)OCCO3)o1 -5.27%
O=C(Nc1ccc(Br)cc1)C1CCN(c2ncccn2)CC1 0.8%
COc1cc(NC(=O)C(=O)Nc2ccc3nc4n(c(=O)c3c2)CCCCC4)cc(OC)c1OC -3.12%
O=C(CN1C(=O)COc2ccc(S(=O)(=O)N3CCCCCC3)cc21)NCCc1ccccc1 -2.64%
Cc1ccc(NC(=O)N2CCN(C)c3ncccc32)cc1C -4.2%
COCCNC(=O)c1c(NC(=O)c2cc(=O)c3cc(Cl)ccc3o2)sc2c1CCCC2 -2.16%
COC(=O)c1ccccc1NC(=O)N1CCC(n2c(C)nc3cccnc32)CC1 26%
COc1cc(OC)c(N(C)C(=O)Cn2ncc3c(=O)oc4ccccc4c32)cc1Cl 2.89%
Cc1ccc(CN2C(=O)N(c3ccccc3)C(=O)C2CC(=O)Nc2ccccc2)cc1 (configuration not stated) 0.584%
COc1ccccc1NC(=O)Cn1nnc(C(=O)Nc2ccccc2Br)c1N -17.6%
CCc1cccc(C)c1NC(=O)Cn1cc2c(n1)CCCCC2 -13.6%
CC(=O)N1CCN(c2csc3ccc(Br)cc3c2=O)CC1 0.44%
Cc1ccc(CNC(=O)c2cc(=O)c3cc(C)cc(C)c3o2)cc1 0.235%
CCC(C)NC(=O)CSc1nc(-c2ccc(F)cc2)cc(C(F)(F)F)n1 (configuration not stated) 2.12%
COC(=O)c1ccccc1NC(=O)c1cnc2sc(N3CCOCC3)nn2c1=O -0.774%
CCOc1ccc(NC(=O)c2cc3cc4cc(OC)ccc4nc3s2)cc1 0.552%
Cc1cccc(NS(=O)(=O)c2ccc3c(c2)OCC(C(=O)N2CCCC2)O3)c1C (configuration not stated) -11.2%
